Experimental data: PubChem BioAssay AID652154 (Broad Institute, 2013)
Out of some 360,000 compounds screened, about 4,200 (1.2%) were called active. This list was built around the results that the source calls inconclusive (neither active nor inactive); the mix of calls is not that of the screen.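 Rule for the calls: active = mean replicate inhibition at least 60% with every replicate also reaching 60%; inconclusive = only one of the two criteria is met; inactive = mean below 60% and not all replicates reaching 60%.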

Experiment: inhibitors of PAX8-driven TPO luciferase reporter, primary screen, RMG-I cells, single concentration (AID 652154);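 note: luciferase light reporting Pax8 driven TPO promoter activity; plate controls were median of neutral control wells for no effect and mitoxantrone controls for full effect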
Conditions: SteadyGlo, 24 h, at 12.6 µM, hits give high values
With `C=C1C(=O)OC2C1CCC(C)C1C=CC(=O)C12C` (configuration not stated) the inhibition was active: 75.2%.
With `COc1cc2ccc(CC(=O)O)cc2cc1OC` the inhibition was inactive: -2.98%.
In the case of `COc1ccc(C(=O)C[n+]2ccc(N)c(C)c2C)cc1`, the inhibition is reported as inconclusive: 60.6%.
In the case of `Cc1ccc(S(=O)(=O)Nc2ccc3c(c2)C(=O)N([C@H](C)CO)C[C@H](C)[C@@H](CN(C)S(=O)(=O)c2ccccc2)OCCCC[C@H](C)O3)cc1`, the inhibition is reported as inconclusive: 66%.
For `COC(=O)C1=C(C)N(Cc2ccc(C(F)(F)F)cc2)C(=NCc2ccc(OC)cc2)NC1c1ccccc1C(F)(F)F` (configuration not stated), the inhibition was inconclusive: 60.1%.
For `COc1ccc(S(=O)(=O)Nc2ccc3c(c2)C(=O)N([C@H](C)CO)C[C@H](C)[C@H](CN(C)Cc2ccc(Cl)c(Cl)c2)OCCCC[C@H](C)O3)cc1`, the inhibition was inconclusive: 63.5%.
In the case of `COc1cccc(S(=O)(=O)N(C)C[C@H]2Oc3ncc(C#CCC(C)C)cc3C(=O)N([C@@H](C)CO)C[C@@H]2C)c1`, the inhibition is reported as inconclusive: 60.4%.
With `C[C@H](CO)N1C[C@H](C)[C@H](CN(C)S(=O)(=O)c2cccs2)OCCCC[C@H](C)Oc2ccc(NS(=O)(=O)c3ccc(F)cc3)cc2C1=O` the inhibition was inconclusive: 61.2%.
With `CC(=O)Nc1cccc(-c2cc(NC=O)c3ncc(-c4ccc(C(C)=O)cc4)n3c2)c1` the inhibition was active: 70.9%.
With `CC1(C)CC(=O)C=C(NC2=CC3OC(c4ccccc4)OCC3OC2=O)C1` (configuration not stated) the inhibition was inconclusive: 63.2%.
For `O=C(Nc1ccc(Cl)c(Cl)c1)N[C@H]1CC[C@H](CCn2cc(C3CC3)nn2)O[C@@H]1CO`, the inhibition was inactive: 3.29%.
In the case of `CCN(CC)c1ccc(C2NC(=O)c3ccccc3N2)cc1` (configuration not stated), the inhibition is reported as inconclusive: 63.4%.
With `O=C(Nc1cccc(F)c1)N1CCCCN2[C@H](CO)[C@@H](c3ccc(-c4ccccc4F)cc3)[C@@H]2C1` the inhibition was inconclusive: 62.7%.
For `O=C(C[C@@H]1CC[C@@H]2[C@H](COC[C@@H](O)CN2Cc2cc(F)ccc2F)O1)NCc1ccccc1`, the inhibition was inactive: -10%.
In the case of `Cc1cccc(C)c1NC(=O)C(CCc1ccccc1)n1c(=O)c(-c2ccccc2)nc2ccccc21` (configuration not stated), the inhibition is reported as inactive: 16.1%.
With `C[C@H]1CN([C@@H](C)CO)C(=O)c2c(c3ccccc3n2C)-c2ccccc2CO[C@H]1CN(C)C(=O)Nc1cccc(C(F)(F)F)c1` the inhibition was inconclusive: 60.9%.
In the case of `CCOc1cc(/C=N/N=C/c2ccc(O)c(OCC)c2)ccc1O`, the inhibition is reported as inactive: 26%.
In the case of `Cc1ccc(C(C)C)c(OCc2ccc(C(=O)N/N=C/c3ccc(O)cc3O)cc2)c1`, the inhibition is reported as inconclusive: 61.2%.
For `COc1cccc(N2CCN(C(=O)c3ccc(CS(=O)c4ccccc4C)o3)CC2)c1` (configuration not stated), the inhibition was inconclusive: 61.3%.
With `COc1ccc(CNC(=O)C[C@H]2C[C@H](C(=O)N3CCCCC3)[C@@]3(CCc4ccccc4)c4[nH]c5ccc(Cl)cc5c4CCN3C2=O)cc1OC` the inhibition was inconclusive: 67.1%.
In the case of `O=C(Nc1ccccc1[N+](=O)[O-])c1cc(S(=O)(=O)N2CCOCC2)cs1`, the inhibition is reported as inconclusive: 64.7%.
With `C[C@@H]1CCCCO[C@@H](CN(C)Cc2ccc(C(F)(F)F)cc2)[C@@H](C)CN([C@@H](C)CO)C(=O)c2cc(NC(=O)CCC(F)(F)F)ccc2O1` the inhibition was active: 71.6%.
For `Cc1cc(C)c(S(=O)(=O)N2CCN(C(=O)c3c(C)nn(-c4ccccc4)c3Cl)CC2)c(C)c1`, the inhibition was inactive: 30.3%.
In the case of `COc1ccc(Cn2c(C)nc3c(c2=O)c2nc4ccccc4nc2n3Cc2ccco2)cc1`, the inhibition is reported as inconclusive: 60.7%.
In the case of `CC(=O)c1c(C)[nH]c(C(=O)Nc2ccc(C)cn2)c1C`, the inhibition is reported as inconclusive: 62.4%.
For `CCOc1ccc(C(C)=O)cc1COC(=O)c1ccccc1C(=O)N(C)Cc1ccccc1`, the inhibition was inactive: 1%.
For `CCc1nnc(NC(=O)Cc2cccs2)s1`, the inhibition was inconclusive: 69.9%.
For `CCC/C(=C1/c2ccccc2C(=O)N1c1ccccc1)c1ccc(O[C@@H]2CCCCO2)cc1`, the inhibition was inactive: 19.4%.
In the case of `O=C(O)C[C@@H]1C[C@@H]2c3cc(NC(=O)c4ccc5c(c4)OCO5)ccc3O[C@@H]2[C@H](CO)O1`, the inhibition is reported as inactive: -4.18%.
With `CCCNC(=O)Nc1ccc2c(c1)OC[C@H](C)N(Cc1ccc(-c3ccccn3)cc1)C[C@H](C)[C@H](OC)CN(C)C2=O` the inhibition was inconclusive: 79.6%.
In the case of `COc1cc(C(=O)NN=Cc2ccc(N(C)C)cc2)cc(OC)c1OC`, the inhibition is reported as inconclusive: 61%.
For `Cc1cccc(NC(=O)c2ccc([N+](=O)[O-])o2)c1C`, the inhibition was inconclusive: 60.6%.
In the case of `O=c1[nH]c(CSc2ccccn2)nc2c1cnn2-c1ccccc1`, the inhibition is reported as inactive: -6.74%.
With `CN1CCN(c2nc(-c3ccc(C(C)(C)C)cc3)nc3ccccc23)CC1` the inhibition was inconclusive: 61.1%.
For `O=C(C[C@@H]1C[C@@H]2c3cc(NS(=O)(=O)c4ccc(F)cc4)ccc3O[C@@H]2[C@H](CO)O1)NCCc1ccccc1`, the inhibition was inactive: 2.12%.
In the case of `C[C@H](CO)N1C[C@H](C)[C@H](CN(C)S(=O)(=O)c2ccc(Cl)cc2)OCCCC[C@H](C)Oc2ccc(NC(=O)Cc3ccccc3)cc2C1=O`, the inhibition is reported as inconclusive: 63.5%.
For `COC(=O)C1=C(C)N(Cc2ccc(C(F)(F)F)cc2)C(=NCc2ccccc2C(F)(F)F)NC1c1ccc(F)cc1` (configuration not stated), the inhibition was inconclusive: 60.8%.
For `C[C@H](CO)N1C[C@H](C)[C@@H](CN(C)Cc2ccccc2C(F)(F)F)OCc2ccccc2-c2c(n(C)c3ccccc23)C1=O`, the inhibition was inconclusive: 61.8%.
For `C[C@@H]1CN([C@H](C)CO)S(=O)(=O)c2ccc(C#C[C@@H](C)O)cc2O[C@H]1CN(C)Cc1ccc(-c2ccccc2)cc1`, the inhibition was inconclusive: 61.5%.
For `O=C(NN1C(=O)C2C3C=CC(O3)C2C1=O)c1cccc(O)c1` (configuration not stated), the inhibition was inconclusive: 66%.
In the case of `CS(=O)(=O)c1ccc(-c2sc3ccccc3c2C#CCCO)cc1`, the inhibition is reported as inconclusive: 63.3%.
For `CO[C@H]1O[C@H](CO)[C@@H](OC(=O)c2ccc(Br)cc2)[C@H](OC(=O)c2cc3ccccc3[nH]2)[C@H]1OC(=O)c1cc2ccccc2[nH]1`, the inhibition was inconclusive: 62.6%.
For `C[C@@H]1CN([C@H](C)CO)C(=O)Cc2cc(NC(=O)CCCCCC(=O)Nc3ccccc3N)ccc2O[C@@H]1CN(C)Cc1ccc(Oc2ccccc2)cc1`, the inhibition was inconclusive: 67.3%.
For `O=C1N(c2ccccc2C(F)(F)F)O[C@]1(c1ccccc1)C1CCCC1`, the inhibition was inconclusive: 61%.
In the case of `O=C1NC(Cc2ccccc2)c2nc3cc(F)ccc3c(=O)n2-c2cc3ccccc3cc21` (configuration not stated), the inhibition is reported as active: 62.3%.
With `CN1C(=O)c2cc(NC(=O)c3cccc(F)c3)ccc2OC[C@@H]2O[C@H](CC(=O)NCC3CCCCC3)CC[C@H]21` the inhibition was inconclusive: 60.5%.
With `O=c1c(Cl)c(Cl)cnn1-c1ccccc1` the inhibition was active: 108%.
For `COc1ccc(-c2ccc3c(c2)[C@@H]2[C@@H](CCN2C(=O)NC2CCCCC2)[C@H](CO)N3C)cc1`, the inhibition was active: 81.7%.
For `C[C@@H]1CCCCO[C@@H](CN(C)Cc2ccc(Cl)c(Cl)c2)[C@H](C)CN([C@H](C)CO)C(=O)c2cc(NS(=O)(=O)c3cccs3)ccc2O1`, the inhibition was inconclusive: 70%.
In the case of `O=C(c1cc([N+](=O)[O-])ccc1N1CCOCC1)N1CCN(c2ccccc2)CC1`, the inhibition is reported as active: 90.8%.
For `COC(=O)[C@@]1(Cc2ccc(F)cc2)[C@H]2c3cc(C(=O)N4CCCC4)n(Cc4ccc(OC(F)(F)F)cc4)c3C[C@H]2CN1C(=O)c1ccccc1`, the inhibition was inconclusive: 60.5%.
With `C[C@H]1CN([C@@H](C)CO)S(=O)(=O)c2ccc(/C=C/c3ccccc3)cc2O[C@@H]1CN(C)Cc1ccccc1` the inhibition was inconclusive: 63.7%.
With `CCCCCCN1C=CC(=C2C(=O)c3ccccc3C2=O)C=C1` the inhibition was active: 67.1%.
For `O=C(Nc1ncc(Cc2ccc(SC(F)F)cc2)s1)c1ccc(OC(F)F)cc1`, the inhibition was inconclusive: 63.2%.
For `CN(C)CCNC(=O)c1cccc(-c2cnc3c(NC=O)cc(/C=C/c4ccccc4)cn23)c1`, the inhibition was inconclusive: 72.3%.
For `C[C@@H]1CN([C@@H](C)CO)C(=O)Cc2cc(NC(=O)Nc3ccc(C(F)(F)F)cc3)ccc2O[C@@H]1CN(C)Cc1ccc(Oc2ccccc2)cc1`, the inhibition was inconclusive: 62.4%.
With `CC1(C)CC(=O)C(C(C2=C(O)CC(C)(C)CC2=O)c2ccc(O)c([N+](=O)[O-])c2)=C(O)C1` the inhibition was inactive: 22.9%.
With `CC(=O)Nc1ccc(-c2ccnc3c2CC(C(=O)NCc2ccco2)O3)cc1` (configuration not stated) the inhibition was inconclusive: 61.9%.
With `CN=c1scc(-c2ccccc2F)n1/N=C/c1ccc(O)c(O)c1O` the inhibition was active: 83.1%.
With `O=C(NC1CCCC1)N1CC(=O)N2[C@H](C1)[C@H](c1ccc(-c3cccc(F)c3)cc1)[C@@H]2CO` the inhibition was inactive: -3.81%.
In the case of `COc1ccccc1C#Cc1ccc2c(c1)[C@@H]1[C@@H](CCN1S(=O)(=O)c1ccc(F)cc1)[C@@H](CO)N2`, the inhibition is reported as inconclusive: 63.7%.
With `COc1ccc(-c2ccc3c(c2)[C@@H]2[C@@H](CCN2C(=O)Cc2ccccc2)[C@@H](CO)N3C)cc1` the inhibition was inactive: 19.5%.
In the case of `CN(C[C@H](Cc1ccccc1)N(C[C@@H](CC1CCCCC1)N(CCc1ccccc1)N=O)N=O)N=O`, the inhibition is reported as inactive: 9.16%.
In the case of `Cc1ccc(S(=O)(=O)N2C[C@@H]3CCCC[C@@H]3[C@@H](C)[C@H]2c2cn(Cc3ccccc3)c3ncccc23)cc1`, the inhibition is reported as inconclusive: 60.9%.
With `COc1ccc([Si](C)(C)[C@@H]2[C@@H](CCn3cc(CCO)nn3)O[C@]3(C(=O)N(Cc4ccc(N5CCC5=O)cc4)c4ccccc43)[C@H]2C)cc1` the inhibition was inconclusive: 72%.
In the case of `COc1cc2c(cc1OC)[C@@H](NC(=O)C(C)C)[C@H](OCc1ccccc1)C2`, the inhibition is reported as inconclusive: 70.5%.
For `CC(=O)N1CCCC(c2cc(C(=O)Nc3ccccc3)no2)C1` (configuration not stated), the inhibition was inconclusive: 61.4%.
